Measurements: PubChem BioAssay AID1240 (Sanford-Burnham Center for Chemical Genomics, 2008)
Among all 50,000 compounds or so, about 800 (1.6%) showed an effect of 50% or more. This is one part of the list.

These compounds were tested against Bcl-2-like protein 10 (Homo sapiens) (UniProt Q9HD36) (assay: TR3 peptide-Bcl-B binding displacers, biochemical primary FP assay, phenotype converters (AID 1240;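 also: 0% = Bcl-B with tracer peptide and DMSO and 100% = tracer peptide lacking Bcl-B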)). Settings: GST-Bcl-B / FITC-TR3 peptide fluorescence polarization; stronger effect = higher value; compound at 3.75 mg/L.
Sequence of UniProt Q9HD36 (Q9HD36 whole entry, looked up): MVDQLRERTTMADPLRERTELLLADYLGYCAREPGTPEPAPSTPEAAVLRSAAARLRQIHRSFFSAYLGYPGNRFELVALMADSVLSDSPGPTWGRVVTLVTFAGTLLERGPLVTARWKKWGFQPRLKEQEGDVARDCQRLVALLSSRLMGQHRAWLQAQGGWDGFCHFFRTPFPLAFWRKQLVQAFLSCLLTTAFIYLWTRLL
With `CCOc1cccc(C(=O)Nc2nc(-c3ccc(F)cc3F)cs2)c1` the displacement was -8.7%.
Work on `O=C(Cc1n[nH]c(=O)[nH]c1=O)N/N=C\c1ccccc1F` yielded a displacement of -2.3%.
`CC(=O)c1sc(NC(=O)c2ccoc2C)nc1C` showed a displacement of 6%.
Work on `CC1CCN(C(=O)c2ccc(Cl)cc2Cl)CC1` yielded a displacement of 18.6%.
With `Cc1ccc(NC2=CC(c3ccccc3[N+](=O)[O-])N(c3ccc(C)cc3)C2=O)cc1` (centres undefined) the displacement was 3.8%.
Work on `N/C(=N\OC(=O)c1ccccc1F)c1cccc([N+](=O)[O-])c1` yielded a displacement of -3.2%.
Compound `CC(=O)NCCc1c(C)n(Cc2ccccc2)c2ccccc12` has a displacement of 20.2%.
`CCN1C(=O)/C(=C/c2cc3c(cc2Br)OCO3)SC1=S` gave a displacement of 1.7%.
Work on `COc1cc(-c2csc(/C(C#N)=C/Nc3cccc(F)c3)n2)ccc1O` yielded a displacement of 0.6%.
With `CC(C)c1ccc(/C=C(\NC(=O)c2ccccc2)C(=O)NCCCN(C)C)cc1` the displacement was 10.5%.
`Cc1cccc(-c2cc(NC(=O)c3ccc(Br)cc3)n[nH]2)c1` was tested, and the displacement was 9.4%.
In the case of `Fc1cccc(Cl)c1/C=N/Nc1nc2ccccc2s1`, the displacement is reported as -5.5%.
`O=C(NCCOc1ccccc1Cl)c1cc(F)c(F)cc1Cl` gave a displacement of -18.9%.
Compound `Cc1ccc(OCC(=O)N2CCN(c3ccc([N+](=O)[O-])cc3Cl)CC2)cc1C` has a displacement of 5.7%.
With `O=C1NC(=O)N(c2ccccc2)C(=O)/C1=C\c1ccccc1I` the displacement was -6.5%.
`CCCOc1ccc(N2C(=O)CC(N3CCN(c4ccccc4)CC3)C2=O)cc1` (centres undefined) showed a displacement of 6.3%.
Compound `Cc1ccc(-n2[nH]c(C)c(/C=N/NC(=O)c3ccccc3[N+](=O)[O-])c2=O)cc1C` has a displacement of 1.1%.
In the case of `COc1ccc(CCC(=O)Nc2cc(Cl)ccc2Cl)cc1`, the displacement is reported as -4.5%.
For `CCOC(=O)c1c(C)nc2c(c1-c1ccc(Cl)cc1Cl)C(=O)CC(C)(C)C2`, the displacement was -4.4%.
In the case of `CC(C)(O)P(=O)(c1ccccc1)c1ccccc1`, the displacement is reported as 16.2%.
Compound `COc1ccc(NC(=O)CN(c2ccc(C(C)C)cc2)S(=O)(=O)c2ccccc2)cc1` has a displacement of -1.3%.
`CCOC(=O)c1ccccc1NC(=O)c1ccc(Cl)cc1Cl` gave a displacement of -10.4%.
`CC1(C)Nc2ccccc2N(CCC(=O)N2CCOCC2)C1=O` was tested, and the displacement was 9%.
`Cc1c(C)c2ccc(OC(C)C)cc2oc1=O` showed a displacement of 9.4%.
`COC(=O)c1cc(NC(=O)c2c(-c3ccccc3Cl)noc2C)cc(C(=O)OC)c1` gave a displacement of 10.5%.
`COc1ccc(N2C(=O)/C(=C/c3cc(Cl)cc(Cl)c3O)C(=O)NC2=S)cc1` gave a displacement of -8.9%.
In the case of `COC(=O)C1=C(C)NC2=C(C(=O)CC(C)(C)C2)C1c1ccc(C)o1` (centres undefined), the displacement is reported as -1.7%.
`Cc1nn(-c2ccc(Cl)c(Cl)c2)c(C)c1-c1cccc([N+](=O)[O-])c1` showed a displacement of 13.1%.
For `O=C(CC1(O)C(=O)Nc2ccc(Br)cc21)c1ccco1` (centres undefined), the displacement was -27%.
`COc1ccc(C(=O)Nc2ccc(NC(=O)c3ccc(Br)cc3)cc2)cc1[N+](=O)[O-]` gave a displacement of -5.7%.
With `COc1c(Br)cc(Cl)cc1/C=C1\C(=O)NC(=S)N(c2ccc(C)cc2)C1=O` the displacement was -9.7%.
In the case of `Cc1cc(C)nc(SCC(=O)c2cccs2)n1`, the displacement is reported as 11.9%.
For `Nc1nonc1C(=O)OCc1ccc(Cl)cc1Cl`, the displacement was -8.1%.
For `N#C/C(=C/c1ccc(-c2ccc([N+](=O)[O-])cc2)o1)C(=O)N1CCOCC1`, the displacement was 0.9%.
In the case of `COc1ccc([N+](=O)[O-])cc1-c1ccc(/C=C2\C(=O)NC(=O)N(c3ccc(Cl)cc3)C2=O)o1`, the displacement is reported as 25.1%.
With `Cc1cc(C(O)(C(F)(F)F)C(F)(F)F)cc(C)c1N` the displacement was -2.1%.
With `Cc1ccc(/C=C/C(=O)Nc2cccc(Br)c2)o1` the displacement was 10.9%.
`COc1ccc(CNc2ccc3c(c2)ncn3-c2ccc(OC)cc2)cc1` gave a displacement of -1.1%.
Compound `CC(=O)c1ccc(NC2=NC(C)(C)Cc3ccccc32)cc1` has a displacement of -3.5%.
In the case of `COc1ccc(CN2CCN(Cc3cc(Br)ccc3OC)CC2)c(OC)c1`, the displacement is reported as -7.5%.
Work on `O=C(N/N=C/c1cccc2ccccc12)C(=O)N1CCCC1` yielded a displacement of 11.3%.
`CC(C)OC(=O)C1C(=O)CC(C)(O)C(C(=O)OC(C)C)C1c1ccc(C(C)C)cc1` (centres undefined) showed a displacement of 4.4%.
With `CC(C)CNC(=O)c1cccc(NC(=O)C(c2ccccc2)c2ccccc2)c1` the displacement was -7.9%.
`COc1ccc(CN2CCN(CC3CC=CCC3)CC2)c(OC)c1OC` (centres undefined) showed a displacement of -3.7%.
With `CN1CCN(Cn2c(O)c(N=NC(=O)c3cccnc3)c3ccccc32)CC1` the displacement was -11.9%.
Work on `CCOc1cc(/C=N/NC(=O)c2ccccn2)ccc1OC(=O)c1ccc(F)cc1` yielded a displacement of 3.8%.
`Cc1no[n+]([O-])c1COc1ccccc1/C=C1\NC(=S)NC1=O` showed a displacement of -3.9%.
`O=C(COc1ccccc1[N+](=O)[O-])Nc1cccnc1` was tested, and the displacement was 3.9%.
`CCOC(=O)C(=CNc1ccc2c(c1)OCCO2)C(=O)OCC` gave a displacement of -1.7%.
For `CCOC(=O)c1c(NC(=O)c2ccc([N+](=O)[O-])cc2)sc(C(=O)N2CCCCCC2)c1C`, the displacement was 1.5%.
Compound `Cc1cc(OCC(=O)Nc2cc(Cl)cc(Cl)c2)ccc1Br` has a displacement of 10.8%.
`COc1ccc(CCNC(=O)c2sc3cc(C)ccc3c2Cl)cc1` showed a displacement of -14.9%.
`CCOC(=O)C(CCOCCOc1cc(C)c(Cl)c(C)c1)C(=O)OCC` gave a displacement of 7.3%.
Work on `Cc1ccccc1OCCSc1nc2ccccc2c(=O)[nH]1` yielded a displacement of 1.8%.
